Test results taken from the supplement of paper PMC4604168 (melanoma cell lines).
This is one part of the list. Single values are uncertain, as repeats are few or missing.

Assays:
Experiment in all cases: cell count relative to DMSO control; melanoma cells; higher = more viable cells
Details in all cases: library dose: standard library concentration; 72 h
G361 = system: G361
IPC-298 = system: IPC-298
IST-MEL1 = system: IST-MEL1
LB2518-MEL = system: LB2518-MEL
LOXIMVI = system: LOXIMVI
MEL-HO = system: MEL-HO
MZ2-MEL = system: MZ2-MEL
MeWo = system: MeWo
RPMI7951 = system: RPMI7951
RVH-421 = system: RVH-421
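Also: cells treated in 1,536-well plates, then fixed and DAPI-stained, with nuclei counted from automated high-throughput microscope images.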

Compound | cell count (G361) [%] | cell count (IPC-298) [%] | cell count (IST-MEL1) [%] | cell count (LB2518-MEL) [%] | cell count (LOXIMVI) [%] | cell count (MEL-HO) [%] | cell count (MZ2-MEL) [%] | cell count (MeWo) [%] | cell count (RPMI7951) [%] | cell count (RVH-421) [%]
C[C@]1(c2nc3c(C(N)=O)cccc3[nH]2)CCCN1 [Veliparib] + COC(=O)c1sccc1S(=O)(=O)Nc1ccc(Nc2ccccc2)cc1OC [GSK0660] (first compound 7 µM, partner dose 5 µM) | 108 | 95.2 | 93.9 | 72.3 | 124 | 95 | 103 | 112 | 87.6 | 70.5
NC(=O)Nc1cc(-c2cccc(F)c2)sc1C(=O)N[C@H]1CCCNC1 + NCC(=O)Nc1ccc(-n2nc(C(F)(F)F)cc2-c2ccc3c(ccc4ccccc43)c2)cc1 [OSU03012] (first compound 0.1 µM, partner dose 5 µM) | 74.7 | 50.5 | 70.4 | 48.1 | 75.9 | 58.4 | 94 | 71 | 54.5 | 96.3
Cc1nc(Nc2ncc(C(=O)Nc3c(C)cccc3Cl)s2)cc(N2CCN(CCO)CC2)n1 [dasatanib] + O=C1NC(=O)/C(=C/c2ccc(-c3ccc(F)cc3O)o2)S1 [AS252424] (first compound 0.02 µM, partner dose 5 µM) | 69.5 | 79.3 | 73.9 | 85.8 | 47.8 | 57.9 | 53.5 | 75.8 | 50.5 | 79.5
Cc1nc(Nc2ncc(C(=O)Nc3c(C)cccc3Cl)s2)cc(N2CCN(CCO)CC2)n1 [dasatanib] + C=CCn1c(=O)c2cnc(Nc3ccc(N4CCN(C)CC4)cc3)nc2n1-c1cccc(C(C)(C)O)n1 [MK1775] (first compound 0.02 µM, partner dose 0.1 µM) | 62.8 | 69.5 | 51.3 | 59.2 | 16.6 | 67.3 | 57.8 | 70.6 | 26.2 | 72.4
OCCn1cc(-c2cnc3nnn(Cc4ccc5ncccc5c4)c3n2)cn1 + COc1ccc2c(c1)CCC1C2CCC2(C)C(NCCCCCCN3C(=O)C=CC3=O)CCC12 [U73122] (first compound 5 µM, partner dose 2 µM) | 113 | 105 | 98.4 | 108 | 252 | 103 | 95.2 | 75.5 | 60.3 | 79.9
OCCn1cc(-c2cnc3nnn(Cc4ccc5ncccc5c4)c3n2)cn1 + O=C(O)C(=O)Nc1sc2c(c1C(=O)O)CCNC2 [TCS401] (first compound 5 µM, partner dose 8.33333 µM) | 106 | 85.8 | 97 | 81.1 | 111 | 96.8 | 95.2 | 97.2 | 106 | 121
Cc1nc(Nc2ncc(C(=O)Nc3c(C)cccc3Cl)s2)cc(N2CCN(CCO)CC2)n1 [dasatanib] + Cc1cc([N+](=O)[O-])ccc1NS(=O)(=O)c1cc(Cl)ccc1Cl [FH535] (first compound 0.02 µM, partner dose 5 µM) | 40.6 | 42 | 43.2 | 48.8 | 18.6 | 42 | 29.6 | 64.4 | 49.1 | 55.2
Cc1nc(Nc2ncc(C(=O)Nc3c(C)cccc3Cl)s2)cc(N2CCN(CCO)CC2)n1 [dasatanib] + Cc1ccc(NC(=O)c2cccc(N(C)C)c2)cc1NC(=O)c1ccc(O)cc1 [ZM336372] (first compound 0.02 µM, partner dose 10 µM) | 80.5 | 112 | 65.2 | 85.4 | 8.06 | 100 | 79.2 | 86 | 44.2 | 76.6
CO[C@@H]1[C@H](N(C)C(=O)c2ccccc2)C[C@H]2O[C@]1(C)n1c3ccccc3c3c4c(c5c6ccccc6n2c5c31)C(=O)NC4 [Midostaurin] + O=S(=O)(c1ccccc1)N(CC(F)(F)F)c1ccc(C(O)(C(F)(F)F)C(F)(F)F)cc1 [T0901317] (first compound 0.4 µM, partner dose 7 µM) | 36.1 | 47.6 | 78.8 | 32.7 | 49.5 | 63.4 | 37 | 65.1 | 39.3 | 83
CO[C@@H]1[C@H](N(C)C(=O)c2ccccc2)C[C@H]2O[C@]1(C)n1c3ccccc3c3c4c(c5c6ccccc6n2c5c31)C(=O)NC4 [Midostaurin] + COc1cc2c(Oc3ccc4[nH]c(C)cc4c3F)ncnc2cc1OCCCN1CCCC1 [cediranib] (first compound 0.4 µM, partner dose 2 µM) | 49.8 | 66.9 | 47.4 | 92.6 | 39.9 | 95.1 | 90.6 | 84.3 | 54 | 73.8
CN(C)S(=O)(=O)c1ccc2c(c1)/C(=C/c1cc3c([nH]1)CCCC3)C(=O)N2 + N#Cc1c(O)c2c(-c3ccc(-c4ccccc4O)cc3)csc2[nH]c1=O [A769662] (first compound 2 µM, partner dose 10 µM) | 87.4 | 93.5 | 85.8 | 70.7 | 129 | 86.6 | 92 | 101 | 70.2 | 72.5
NCC(=O)Nc1ccc(-n2nc(C(F)(F)F)cc2-c2ccc3c(ccc4ccccc43)c2)cc1 + CC(C)CCN1c2nc(Nc3cc(F)c(O)c(F)c3)ncc2N(C)C(=O)C1C [BID1870] (first compound 5 µM, partner dose 1 µM) | 69.9 | 55 | 65.3 | 88.4 | 66.6 | 69.9 | 84.1 | 71.1 | 140 | 31.4
NC(=O)Nc1cc(-c2cccc(F)c2)sc1C(=O)N[C@H]1CCCNC1 + CC(C)CCN1c2nc(Nc3cc(F)c(O)c(F)c3)ncc2N(C)C(=O)C1C [BID1870] (first compound 0.1 µM, partner dose 1 µM) | 70.3 | 89.6 | 104 | 71 | 108 | 74 | 85.6 | 70.7 | 49.5 | 80.6
C=CCn1c(=O)c2cnc(Nc3ccc(N4CCN(C)CC4)cc3)nc2n1-c1cccc(C(C)(C)O)n1 + O=C(O)C(=O)Nc1sc2c(c1C(=O)O)CCNC2 [TCS401] (first compound 0.1 µM, partner dose 8.33333 µM) | 69.4 | 76.7 | 104 | 57.8 | 77.3 | 85.4 | 98.3 | 84 | 61.7 | 75
Cc1nc(Nc2ncc(C(=O)Nc3c(C)cccc3Cl)s2)cc(N2CCN(CCO)CC2)n1 [dasatanib] + O=C(Nc1cccc(Cl)c1)Nc1ncc(CCNc2ncnc3ccsc23)s1 [SNS314] (first compound 0.02 µM, partner dose 0.004 µM) | 52.6 | 79.8 | 39.5 | 76.9 | 15.7 | 59.9 | 51.2 | 56.5 | 48.7 | 43.3
Cc1nc(Nc2ncc(C(=O)Nc3c(C)cccc3Cl)s2)cc(N2CCN(CCO)CC2)n1 [dasatanib] + O=C(CCCCCCC(=O)Nc1ccccc1)NO [vorinostat] (first compound 0.02 µM, partner dose 0.4 µM) | 43.9 | 91.8 | 59.1 | 70.2 | 15.5 | 75.5 | 65.7 | 66.3 | 23.3 | 51.3
Cc1nc(Nc2ncc(C(=O)Nc3c(C)cccc3Cl)s2)cc(N2CCN(CCO)CC2)n1 [dasatanib] + Oc1cc(-c2nc(-c3ccccc3)[nH]c2-c2ccncc2)ccc1Cl [L779450] (first compound 0.02 µM, partner dose 1 µM) | 72.9 | 78.2 | 52.2 | 83.5 | 15.4 | 80.4 | 45.2 | 74.1 | 34 | 56
OCCn1cc(-c2cnc3nnn(Cc4ccc5ncccc5c4)c3n2)cn1 + O=C(O)c1ccc(-c2c[nH]c3ncc(-c4ccccc4)cc23)cc1C1CCCC1 [GSK650394] (first compound 5 µM, partner dose 0.8 µM) | 58.9 | 81.9 | 71.1 | 87.2 | 69.3 | 74.7 | 88.6 | 89 | 54.8 | 67.5
C=CCn1c(=O)c2cnc(Nc3ccc(N4CCN(C)CC4)cc3)nc2n1-c1cccc(C(C)(C)O)n1 + C[C@@H]1CCN(C(=O)CC#N)C[C@@H]1N(C)c1ncnc2[nH]ccc12 [CP690550] (first compound 0.1 µM, partner dose 5 µM) | 73.9 | 95.5 | 90 | 66.7 | 71.3 | 101 | 109 | 72.2 | 66.6 | 82.5
CO[C@@H]1[C@H](N(C)C(=O)c2ccccc2)C[C@H]2O[C@]1(C)n1c3ccccc3c3c4c(c5c6ccccc6n2c5c31)C(=O)NC4 [Midostaurin] + NC(=O)Nc1cc(-c2cccc(F)c2)sc1C(=O)N[C@H]1CCCNC1 [AZD7762] (first compound 0.4 µM, partner dose 0.1 µM) | 60.7 | 52.4 | 58 | 42.9 | 46 | 54.1 | 66 | 60.4 | 24.4 | 72.8
C[C@]1(c2nc3c(C(N)=O)cccc3[nH]2)CCCN1 [Veliparib] + CN(NC(=O)CC(=O)NN(C)C(=S)c1ccccc1)C(=S)c1ccccc1 [STA4783] (first compound 7 µM, partner dose 0.03 µM) | 22.9 | 79.5 | 24.4 | 13 | 88.1 | 75.4 | 111 | 17 | 108 | 52.3
NCC(=O)Nc1ccc(-n2nc(C(F)(F)F)cc2-c2ccc3c(ccc4ccccc43)c2)cc1 + O=S(=O)(c1ccccc1)N(CC(F)(F)F)c1ccc(C(O)(C(F)(F)F)C(F)(F)F)cc1 [T0901317] (first compound 5 µM, partner dose 7 µM) | 13.8 | 47.9 | 77.1 | 74.2 | 70.1 | 68.4 | 60 | 68 | 11.2 | 61.4
